# In the supplement of paper PMC8728848:
# The list shows a part of the results.
# B1: MAA (Maackia amurensis), P0DKL3 (protein)
# chain: MATSNSKPTQVLLATFLTFFFLLLNNVNSSDELSFTINNFVPNEADLLFQGEASVSSTGVLQLTRVENGQPQKYSVGRALYAAPVRIWDNTTGSVASFSTSFTFVVKAPNPDITSDGLAFYLAPPDSQIPSGSVSKYLGLFNNSNSDSSNQIVAVELDTYFAHSYDPWDPNYRHIGIDVNGIESIKTVQWDWINGGVAFATITYLAPNKTLIASLVYPSNQTTFSVAASVDLKEILPEWVRVGFSAATGYPTEVETHDVLSWSFTSTLEANCDAATENNVHIARYTA
# What was measured:
# Assay in all cases: glycan array binding signal (z-score within array); higher = stronger binding
# Conditions in all cases: glycan notation: IUPAC condensed, linker removed
# [1] = target: Neu5Ac(a2-3)Gal(b1-3)[GlcNAc(b1-6)]GalNAc
# Outline: (§1)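 Arrays were curated from the Consortium for Functional Glycomics database, 3228 in total, and kept only where the protein sequence was available. Binding is expressed as a within-array Z-score. This score was averaged across arrays of the same protein sequence at different concentrations or buffers and across linkers, and negative values can be read as non-binding.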
# [2] = target: Neu5Ac(a2-3)Gal(b1-3)[Neu5Ac(a2-3)Gal(b1-4)]GlcNAc
# Outline: as §1
# [3] = target: Neu5Ac(a2-3)Gal(b1-3)[Neu5Ac(a2-6)]GalNAc
# Outline: as §1
# [4] = target: Neu5Ac(a2-3)Gal(b1-3)[Neu5Ac(a2-6)]GlcNAc(b1-3)[Fuc(a1-3)[Gal(b1-4)]GlcNAc(b1-6)]Gal(b1-4)Glc
# Outline: as §1
# [5] = target: Neu5Ac(a2-3)Gal(b1-3)]Neu5Ac(a2-3)Gal(b1-4)]GlcNAc
# Outline: as §1
# Neu5Ac(a2-3)Gal(b1-4)Glc = target: Neu5Ac(a2-3)Gal(b1-4)Glc
# Outline: as §1
# [6] = target: Neu5Ac(a2-3)Gal(b1-4)GlcNAc
# Outline: as §1
# [7] = target: Neu5Ac(a2-3)Gal(b1-4)GlcNAc(b1-2)Man
# Outline: as §1
# [8] = target: Neu5Ac(a2-3)Gal(b1-4)GlcNAc(b1-2)Man(a1-3)[GlcNAc(b1-4)][Neu5Ac(a2-3)Gal(b1-4)GlcNAc(b1-2)Man(a1-6)]Man(b1-4)GlcNAc(b1-4)GlcNAc
# Outline: as §1
# [9] = target: Neu5Ac(a2-3)Gal(b1-4)GlcNAc(b1-2)Man(a1-3)[Neu5Ac(a2-3)Gal(b1-4)GlcNAc(b1-2)Man(a1-6)]Man(b1-4)GlcNAc(b1-4)GlcNAc
# Outline: as §1
# [10] = target: Neu5Ac(a2-3)Gal(b1-4)GlcNAc(b1-2)Man(a1-3)[Neu5Ac(a2-3)Gal(b1-4)GlcNAc(b1-2)Man(a1-6)]Man(b1-4)GlcNAc(b1-4)[Fuc(a1-6)]GlcNAc
# Outline: as §1
# [11] = target: Neu5Ac(a2-3)Gal(b1-4)GlcNAc(b1-2)Man(a1-3)[Neu5Ac(a2-6)Gal(b1-4)GlcNAc(b1-2)Man(a1-6)]Man(b1-4)GlcNAc(b1-4)GlcNAc
# Outline: as §1
# [12] = target: Neu5Ac(a2-3)Gal(b1-4)GlcNAc(b1-2)[Neu5Ac(a2-3)Gal(b1-4)GlcNAc(b1-4)]Man(a1-3)[GlcNAc(b1-4)][Neu5Ac(a2-3)Gal(b1-4)GlcNAc(b1-2)[Neu5Ac(a2-3)Gal(b1-4)GlcNAc(b1-6)]Man(a1-6)]Man(b1-4)GlcNAc(b1-4)GlcNAc
# Outline: as §1
# [13] = target: Neu5Ac(a2-3)Gal(b1-4)GlcNAc(b1-2)[Neu5Ac(a2-3)Gal(b1-4)GlcNAc(b1-4)]Man(a1-3)[GlcNAc(b1-4)][Neu5Ac(a2-3)Gal(b1-4)GlcNAc(b1-4)Man(a1-6)]Man(b1-4)GlcNAc(b1-4)GlcNAc
# Outline: as §1
# [14] = target: Neu5Ac(a2-3)Gal(b1-4)GlcNAc(b1-2)[Neu5Ac(a2-3)Gal(b1-4)GlcNAc(b1-6)]Man(a1-6)[Neu5Ac(a2-3)Gal(b1-4)GlcNAc(b1-2)Man(a1-3)]Man(b1-4)GlcNAc(b1-4)GlcNAc
# Outline: as §1
# [15] = target: Neu5Ac(a2-3)Gal(b1-4)GlcNAc(b1-2)[Neu5Ac(a2-3)Gal(b1-4)GlcNAc(b1-6)]Man(a1-6)[Neu5Ac(a2-3)Gal(b1-4)GlcNAc(b1-2)Man(a1-3)][GlcNAc(b1-4)]Man(b1-4)GlcNAc(b1-4)GlcNAc
# Outline: as §1
# [16] = target: Neu5Ac(a2-3)Gal(b1-4)GlcNAc(b1-3)Gal
# Outline: as §1
# [17] = target: Neu5Ac(a2-3)Gal(b1-4)GlcNAc(b1-3)Gal(b1-3)GlcNAc
# Outline: as §1
# [18] = target: Neu5Ac(a2-3)Gal(b1-4)GlcNAc(b1-3)Gal(b1-4)GlcNAc
# Outline: as §1
# [19] = target: Neu5Ac(a2-3)Gal(b1-4)GlcNAc(b1-3)Gal(b1-4)GlcNAc(b1-2)Man(a1-3)[Neu5Ac(a2-3)Gal(b1-4)GlcNAc(b1-3)Gal(b1-4)GlcNAc(b1-2)Man(a1-6)]Man(b1-4)GlcNAc(b1-4)GlcNAc
# Outline: as §1
# [20] = target: Neu5Ac(a2-3)Gal(b1-4)GlcNAc(b1-3)Gal(b1-4)GlcNAc(b1-3)Gal(b1-4)GlcNAc
# Outline: as §1
# [21] = target: Neu5Ac(a2-3)Gal(b1-4)GlcNAc(b1-3)Gal(b1-4)GlcNAc(b1-3)Gal(b1-4)GlcNAc(b1-2)Man(a1-3)[Neu5Ac(a2-3)Gal(b1-4)GlcNAc(b1-3)Gal(b1-4)GlcNAc(b1-3)Gal(b1-4)GlcNAc(b1-2)Man(a1-6)]GalNAc
# Outline: as §1
# [22] = target: Neu5Ac(a2-3)Gal(b1-4)GlcNAc(b1-3)Gal(b1-4)GlcNAc(b1-3)GalNAc
# Outline: as §1
# [23] = target: Neu5Ac(a2-3)Gal(b1-4)GlcNAc(b1-3)Gal(b1-4)GlcNAc(b1-3)[Neu5Ac(a2-3)Gal(b1-4)GlcNAc(b1-3)Gal(b1-4)GlcNAc(b1-6)]GalNAc
# Outline: as §1
# [24] = target: Neu5Ac(a2-3)Gal(b1-4)GlcNAc(b1-3)Gal(b1-4)GlcNAc(b1-6)[Gal(b1-3)]GalNAc
# Outline: as §1
# [25] = target: Neu5Ac(a2-3)Gal(b1-4)GlcNAc(b1-3)Gal(b1-4)[Fuc(a1-3)]GlcNAc
# Outline: as §1
# [26] = target: Neu5Ac(a2-3)Gal(b1-4)GlcNAc(b1-3)GalNAc
# Outline: as §1
# [27] = target: Neu5Ac(a2-3)Gal(b1-4)GlcNAc(b1-3)[Neu5Ac(a2-3)Gal(b1-4)GlcNAc(b1-6)]GalNAc
# Outline: as §1
# [28] = target: Neu5Ac(a2-3)Gal(b1-4)GlcNAc(b1-6)GalNAc
# Outline: as §1
# [29] = target: Neu5Ac(a2-3)Gal(b1-4)GlcNAc(b1-6)[Gal(b1-3)]GalNAc
# Outline: as §1
# [30] = target: Neu5Ac(a2-3)Gal(b1-4)GlcNAc(b1-6)[Neu5Ac(a2-3)Gal(b1-3)]GalNAc
# Outline: as §1
# [31] = target: Neu5Ac(a2-3)Gal(b1-4)GlcNAc6S
# Outline: as §1
# [32] = target: Neu5Ac(a2-3)Gal(b1-4)[Fuc(a1-3)]GlcNAc
# Outline: as §1
# [33] = target: Neu5Ac(a2-3)Gal(b1-4)[Fuc(a1-3)]GlcNAc(b1-2)Man
# Outline: as §1
# [34] = target: Neu5Ac(a2-3)Gal(b1-4)[Fuc(a1-3)]GlcNAc(b1-3)Gal
# Outline: as §1
# [35] = target: Neu5Ac(a2-3)Gal(b1-4)[Fuc(a1-3)]GlcNAc(b1-3)Gal(b1-4)GlcNAc
# Outline: as §1
# [36] = target: Neu5Ac(a2-3)Gal(b1-4)[Fuc(a1-3)]GlcNAc(b1-3)Gal(b1-4)[Fuc(a1-3)]GlcNAc(b1-3)Gal(b1-4)[Fuc(a1-3)]GlcNAc
# Outline: as §1
# [37] = target: Neu5Ac(a2-3)Gal(b1-4)[Fuc(a1-3)]GlcNAc(b1-3)GalNAc
# Outline: as §1
# [38] = target: Neu5Ac(a2-3)Gal(b1-4)[Fuc(a1-3)]GlcNAc(b1-6)[Gal(b1-3)]GalNAc
# Outline: as §1
# [39] = target: Neu5Ac(a2-3)Gal(b1-4)[Fuc(a1-3)]GlcNAc(b1-6)[Neu5Ac(a2-3)Gal(b1-3)]GalNAc
# Outline: as §1
# [40] = target: Neu5Ac(a2-3)Gal(b1-4)[Fuc(a1-3)]GlcNAc6S
# Outline: as §1
# [41] = target: Neu5Ac(a2-3)Gal6S(b1-4)GlcNAc
# Outline: as §1
# [42] = target: Neu5Ac(a2-3)Gal6S(b1-4)[Fuc(a1-3)]GlcNAc
# Outline: as §1
# Neu5Ac(a2-3)GalNAc = target: Neu5Ac(a2-3)GalNAc
# Outline: as §1
# [43] = target: Neu5Ac(a2-3)GalNAc(b1-4)GlcNAc
# Outline: as §1
binder,measurement,setting,value
B1,glycan array binding signal (z-score),[1],-0.229
same,glycan array binding signal (z-score),[2],-0.209
same,glycan array binding signal (z-score),[3],-0.213
same,glycan array binding signal (z-score),[4],-0.175
same,glycan array binding signal (z-score),[5],-0.254
same,glycan array binding signal (z-score),Neu5Ac(a2-3)Gal(b1-4)Glc,0.13
same,glycan array binding signal (z-score),[6],0.599
same,glycan array binding signal (z-score),[7],-0.167
same,glycan array binding signal (z-score),[8],-0.106
same,glycan array binding signal (z-score),[9],1.17
same,glycan array binding signal (z-score),[10],0.779
same,glycan array binding signal (z-score),[11],0.052
same,glycan array binding signal (z-score),[12],0.383
same,glycan array binding signal (z-score),[13],0.479
same,glycan array binding signal (z-score),[14],-0.29
same,glycan array binding signal (z-score),[15],0.023
same,glycan array binding signal (z-score),[16],0.689
same,glycan array binding signal (z-score),[17],0.34
same,glycan array binding signal (z-score),[18],1.1
same,glycan array binding signal (z-score),[19],0.785
same,glycan array binding signal (z-score),[20],1.27
same,glycan array binding signal (z-score),[21],0.409
same,glycan array binding signal (z-score),[22],0.246
same,glycan array binding signal (z-score),[23],1.22
same,glycan array binding signal (z-score),[24],0.564
same,glycan array binding signal (z-score),[25],0.179
same,glycan array binding signal (z-score),[26],0.626
same,glycan array binding signal (z-score),[27],0.568
same,glycan array binding signal (z-score),[28],-0.073
same,glycan array binding signal (z-score),[29],-0.014
same,glycan array binding signal (z-score),[30],-0.036
same,glycan array binding signal (z-score),[31],0.088
same,glycan array binding signal (z-score),[32],-0.212
same,glycan array binding signal (z-score),[33],-0.234
same,glycan array binding signal (z-score),[34],-0.256
same,glycan array binding signal (z-score),[35],-0.241
same,glycan array binding signal (z-score),[36],-0.157
same,glycan array binding signal (z-score),[37],-0.151
same,glycan array binding signal (z-score),[38],0.541
same,glycan array binding signal (z-score),[39],0.045
same,glycan array binding signal (z-score),[40],-0.236
same,glycan array binding signal (z-score),[41],-0.162
same,glycan array binding signal (z-score),[42],-0.251
same,glycan array binding signal (z-score),Neu5Ac(a2-3)GalNAc,-0.313
same,glycan array binding signal (z-score),[43],-0.276
